28 molecules from the antibiotic and cytotoxicity screens of Wong et al. (2023) can be followed below.

For one experiment, the system named is HSkMC. The experiment can be described thus: cytotoxicity call (relative viability < 0.9). Particulars: 10 µM.
The next experiment has as its system HepG2. Nature of the experiment: cytotoxicity call (relative viability < 0.9). The conditions noted are these: 10 µM.
The next experiment has as its system S. aureus RN4220. Nature of the experiment: growth inhibition call (relative growth <= 0.2). The conditions noted are these: 50 µM.

This is one part of the list.

Turning to `Cn1c(=O)c2c(ncn2CC(=O)NS(=O)(=O)c2ccccc2)n(C)c1=O`, the cytotoxicity call with HSkMC and in the experiment with HepG2 was “inactive” throughout. In the experiment with S. aureus RN4220, the growth inhibition call is “inactive”.
As to `Cc1ccc(C(=O)Nc2cccc(C(F)(F)F)c2)cc1Nc1nc(-c2cccnc2)nc2c1cnn2C`, the cytotoxicity call in the experiment on HSkMC is “inactive”. The cytotoxicity call in the experiment on HepG2 was “active”. The growth inhibition call in the experiment with S. aureus RN4220 was “inactive”.
Turning to `C[C@H](CO)N1C[C@H](C)[C@H](CN(C)CC2CCCCC2)OCCCC[C@H](C)Oc2ccc(NS(=O)(=O)c3cccs3)cc2C1=O`, the cytotoxicity call in the experiment with HSkMC and in the experiment on HepG2 was “inactive” in each case. Moreover, in the experiment on S. aureus RN4220, the growth inhibition call was “inactive”.
Take `C[C@H](O)C#Cc1ccc2c(c1)O[C@H](CN(C)C(=O)Nc1ccccc1)[C@H](C)CN([C@H](C)CO)S2(=O)=O`: the cytotoxicity call in the experiment on HSkMC and with HepG2 was “inactive” each time. In addition, the growth inhibition call with S. aureus RN4220 is “inactive”.
`C[C@@H]1CN([C@@H](C)CO)S(=O)(=O)c2ccc(C3=CCCC3)cc2O[C@H]1CN(C)C(=O)Cc1ccncc1`: the cytotoxicity call in the experiment on HSkMC and in the experiment with HepG2 was “inactive” in each case. Moreover, in the experiment on S. aureus RN4220, the growth inhibition call is “inactive”.
On to `COc1cccc(NC(=O)N[C@@H]2C=C[C@H](CC(=O)N3CCOCC3)O[C@H]2CO)c1`, for which the cytotoxicity call in the experiment on HSkMC and in the experiment with HepG2 was “inactive” throughout. Also, the growth inhibition call with S. aureus RN4220 is “inactive”.
Consider `C[C@H]1CN([C@@H](C)CO)C(=O)Cc2cc(NS(C)(=O)=O)ccc2O[C@H]1CN(C)C`, for which the cytotoxicity call with HSkMC and in the experiment on HepG2 was “inactive” each time. In addition, the growth inhibition call in the experiment with S. aureus RN4220 is “inactive”.
On to `CC(C)N1CC2(CN(Cc3ccc(Cl)c(Cl)c3)C2)Oc2c(NC(=O)c3ccncc3)cccc2C1=O`, for which the cytotoxicity call with HSkMC and in the experiment with HepG2 was “inactive” each time. Also, the growth inhibition call in the experiment with S. aureus RN4220 is “inactive”.
Turning to `COc1ccc(NC(=O)N(C)C[C@@H]2OCCCC[C@@H](C)Oc3ccc(NC(=O)C4CCCCC4)cc3C(=O)N([C@@H](C)CO)C[C@@H]2C)cc1`, the cytotoxicity call with HSkMC and in the experiment on HepG2 was “inactive” in each case. The growth inhibition call in the experiment with S. aureus RN4220 was “inactive”.
Regarding `CC(CO)(CO)NS(=O)(=O)c1ccccc1`, the cytotoxicity call in the experiment on HSkMC and in the experiment on HepG2 was “inactive” throughout. The growth inhibition call with S. aureus RN4220 was “inactive”.
Consider `CO[C@H](CN(C)C(=O)c1ccc2c(c1)OCO2)[C@@H](C)CN([C@H](C)CO)S(=O)(=O)c1ccc(F)cc1`, for which the cytotoxicity call in the experiment on HSkMC and in the experiment on HepG2 was “inactive” each time. Also, the growth inhibition call in the experiment with S. aureus RN4220 is “inactive”.
Take `C[C@H](CO)N1C[C@H](C)[C@@H](CN(C)S(C)(=O)=O)Oc2cc(-c3ccc(F)cc3)ccc2S1(=O)=O`: the cytotoxicity call in the experiment on HSkMC and with HepG2 was “inactive” throughout. Besides, in the experiment on S. aureus RN4220, the growth inhibition call is “inactive”.
Regarding `C[C@H](CO)N1C[C@H](C)[C@H](CN(C)C(=O)Nc2cccc3ccccc23)OCCCC[C@H](C)Oc2ccc(NS(=O)(=O)c3ccc(F)cc3)cc2C1=O`, the cytotoxicity call in the experiment on HSkMC and in the experiment on HepG2 was “inactive” each time. Besides, in the experiment with S. aureus RN4220, the growth inhibition call is “inactive”.
As to `C[C@@H]1CCCCO[C@@H](CN(C)C(=O)CCC(F)(F)F)[C@H](C)CN([C@@H](C)CO)C(=O)c2cc(NS(=O)(=O)c3ccccc3)ccc2O1`, the cytotoxicity call in the experiment with HSkMC and with HepG2 was “inactive” each time. Further, in the experiment on S. aureus RN4220, the growth inhibition call was “inactive”.
On to `CN(C)CC(=O)N[C@@H]1CC[C@H](CCNC(=O)C2CCC2)O[C@@H]1CO`, for which the cytotoxicity call in the experiment on HSkMC and in the experiment with HepG2 was “inactive” throughout. In the experiment with S. aureus RN4220, the growth inhibition call is “inactive”.
As for `COCCOC(=O)N1C(=O)[C@@]2(c3cc(C#CC4=CCCCC4)ccc31)[C@H](c1ccc(O)cc1)N1[C@H](c3ccccc3)[C@H](c3ccccc3)OC(=O)[C@H]1[C@@H]2C(=O)N1CCN(c2ncccn2)CC1`, the cytotoxicity call in the experiment on HSkMC and with HepG2 was “inactive” throughout. Also, the growth inhibition call in the experiment with S. aureus RN4220 is “inactive”.
For `COc1ccc(CN(C)C[C@@H]2Oc3c(NC(=O)Nc4ccc(C(F)(F)F)cc4)cccc3C(=O)N([C@H](C)CO)C[C@H]2C)cc1`, the cytotoxicity call with HSkMC is “active”. In the experiment with HepG2, the cytotoxicity call is “inactive”. Moreover, the growth inhibition call in the experiment on S. aureus RN4220 is “inactive”.
As to `C[C@@H]1CCCCO[C@H](CN(C)C(=O)Cc2ccccc2)[C@@H](C)CN([C@H](C)CO)C(=O)c2cc(NC(=O)C3CCCCC3)ccc2O1`, the cytotoxicity call in the experiment on HSkMC and in the experiment on HepG2 was “inactive” in each case. Further, the growth inhibition call with S. aureus RN4220 was “inactive”.
Regarding `O=C1c2ccccc2-c2nc(-c3ccccc3)cc3cccc1c23`, the cytotoxicity call in the experiment with HSkMC and in the experiment on HepG2 was “inactive” in each case. Also, the growth inhibition call with S. aureus RN4220 was “inactive”.
For `NC[C@@H](O)COc1ccc2c(c1)OCO2`, the cytotoxicity call with HSkMC and in the experiment with HepG2 was “inactive” each time. In addition, in the experiment on S. aureus RN4220, the growth inhibition call was “inactive”.
As for `Cc1noc(C)c1S(=O)(=O)N(C)C[C@@H]1Oc2ccc(NC(=O)NC(C)C)cc2CC(=O)N([C@H](C)CO)C[C@@H]1C`, the cytotoxicity call with HSkMC and with HepG2 was “inactive” each time. Moreover, the growth inhibition call in the experiment on S. aureus RN4220 was “inactive”.
`C[C@@H]1CN([C@H](C)CO)C(=O)Cc2cc(NC(=O)Nc3ccc(F)cc3)ccc2O[C@H]1CN(C)C(=O)Nc1cccc2ccccc12`: the cytotoxicity call with HSkMC and in the experiment with HepG2 was “inactive” in each case. Also, the growth inhibition call with S. aureus RN4220 is “inactive”.
For the molecule `C[C@@H]1CN([C@@H](C)CO)C(=O)c2cc(C#CC3CC3)cnc2O[C@H]1CN(C)S(=O)(=O)c1cccc(F)c1`, the cytotoxicity call with HSkMC and with HepG2 was “inactive” each time. Moreover, in the experiment with S. aureus RN4220, the growth inhibition call is “inactive”.
On to `COc1ccc(S(=O)(=O)N[C@H]2CC[C@H](CC(=O)N3CCN(c4ccccc4)CC3)O[C@H]2CO)cc1`, for which the cytotoxicity call in the experiment with HSkMC and in the experiment on HepG2 was “inactive” each time. Besides, the growth inhibition call in the experiment on S. aureus RN4220 was “inactive”.
For `C[C@@H]1CN([C@H](C)CO)C(=O)Cc2cc(NC(=O)Nc3ccc(C(F)(F)F)cc3)ccc2O[C@@H]1CN(C)C(=O)Nc1ccccc1`, the cytotoxicity call with HSkMC and in the experiment on HepG2 was “inactive” in each case. Moreover, the growth inhibition call in the experiment with S. aureus RN4220 is “inactive”.
As for `O=C(CN1CCOCC1)NCC[C@@H]1CC[C@H](NC(=O)Nc2ccccc2)[C@@H](CO)O1`, the cytotoxicity call with HSkMC and with HepG2 was “inactive” each time. Moreover, the growth inhibition call in the experiment on S. aureus RN4220 is “inactive”.
For the molecule `CC(C)NC(=O)Nc1cccc2c1O[C@@H](CN(C)C(=O)NC1CCCCC1)[C@H](C)CN([C@H](C)CO)C2=O`, the cytotoxicity call with HSkMC and in the experiment with HepG2 was “inactive” each time. The growth inhibition call in the experiment on S. aureus RN4220 was “inactive”.
For `COc1ccc([Si](C)(C)[C@@H]2[C@@H](CCO)O[C@]3(C(=O)N(Cc4ccc(N5C(=O)c6ccccc6Oc6ccccc65)cc4)c4ccccc43)[C@H]2C)cc1`, the cytotoxicity call in the experiment on HSkMC (human skeletal muscle cells) was “inactive”. Besides, the cytotoxicity call in the experiment with HepG2 was “active”. Moreover, the growth inhibition call in the experiment on S. aureus RN4220 is “inactive”.
